Experimental data: PubChem BioAssay (Tox21)
The inconclusive results got no clear call from the source; some entries with a clear call stand among them for comparison. For some of these results: Potencies of inconclusive entries are left out as doubtful fits. Active and inactive are the calls of the source. Calls follow the shape of the dose curve; as a rule, active = well fitted cell-killing curve with a large enough effect in the repeat runs; inconclusive = weak or mixed curves, or effect the other way; inactive = flat fitted curve, though single readings scatter.

Experiment: qHTS assay to identify small molecule antagonists of the estrogen receptor alpha (ER-alpha) signaling pathway using the BG1 cell line in the presence of 0.1 nM 17-beta-estradiol - cell viability counter screen (AID 1259241); also: nearly all actives have a fitted effect of over 40% in size; also: potency is read from the fitted curve at half-maximal effect
Conditions: VM7Luc4E2 (BG1) viability, CellTiter-Fluor protease, 22 h, 0.1 nM estradiol agonist added; series mostly up to 92.4 µM
In short: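 Measures cytotoxicity alongside the ER-alpha antagonist readout: VM7Luc4E2 cells, charcoal-stripped serum, 0.1 nM 17beta-estradiol final, 22 hr compound incubation at 37C, CellTiter-Fluor fluorescence.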
% is scaled to controls: 0 for no effect and ±100 for the full control effect; tags tell the direction and shape of the fitted curve.

Structure (SMILES)	Potency
O=C(O)c1cc(=O)c2c(OCC(O)COc3cccc4oc(C(=O)O)cc(=O)c34)cccc2o1	inconclusive [cytotoxic, single point]
Fc1ccc(Br)cc1	inactive
O=c1[nH][nH]c2ccccc12	inactive
OC(CCCN1CCCCC1)(c1ccccc1)c1ccccc1	inconclusive [cytotoxic, partial curve, poor fit]
CC(=O)O[Si](C)(OC(C)=O)OC(C)=O	inactive
Cc1ccc2sc3cccc(C)c3c2c1	inactive
CCCS(=O)c1ccc2nc(NC(=O)OC)[nH]c2c1 (stereo not drawn)	inconclusive [cytotoxic, single point]
C=C(C)c1cccc(C(C)(C)N=C=O)c1	inactive

Experiment: qHTS assay to identify small molecule antagonists of the androgen receptor (AR) signaling pathway using the MDA cell line in the presence of 0.5 nM R1881 - cell viability counter screen (AID 1259242); also: nearly all actives have a fitted effect of over 45% in size; also: potency is read from the fitted curve at half-maximal effect
Conditions: MDA-kb2 viability, CellTiter-Fluor protease fluorescence, 16 h; series mostly up to 92.4 µM
In short: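 R1881 at 0.5 nM final stimulated MDA-kb2 cells during 16 hr compound treatment at 37C. Cytotoxicity read: CellTiter-Fluor fluorescence after 30 min.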

Structure (SMILES)	Potency	viability change, negative = cytotoxic
C=CCCC	inactive	
N[C@@H](CCC(=O)Nc1ccc([N+](=O)[O-])cc1)C(=O)O	inconclusive [cytotoxic, partial curve, poor fit]	
O=C1N(c2ccccc2)c2ccccc2C1(Cc1ccncc1)Cc1ccncc1	inactive	
Cc1[nH]c(C)c(Cl)c(=O)c1Cl		inactive: 1.2% [at 19 µM]
CC1=NN(c2cc(S(=O)(=O)O)ccc2Cl)C(=O)C1N=Nc1ccccc1 (stereo not drawn)	inconclusive [cytotoxic, partial curve]	
O=S1(=O)CC=CC1	inactive	
NS(=O)(=O)c1cc(-c2nn[nH]n2)c(NCc2cccs2)cc1Cl	inactive	
C[N+]12CCC(CC1)C(OC(=O)C(O)(c1ccccc1)c1ccccc1)C2 (stereo not drawn)	inactive	
COc1ccc(NS(=O)(=O)c2ccc(N)cc2)nn1	inactive	
CC(=O)N[C@H]1[C@H]([C@H](O)[C@H](O)CO)OC(C(=O)O)=C[C@@H]1N=C(N)N	inactive	
C=CC(=C)CC/C=C(\C)CCC=C(C)C		inactive: 2.29% [at 19 µM]
CC(=O)CC(N)=O	inactive	
CC/C=C/CCCCCCCCCCOC(C)=O	inactive	
CC(C)=CC1CC(C)CCO1 (stereo not drawn)	inactive	
C=C(C)C1CC=C(C)C(O)C1 (stereo not drawn)	inactive	
C=CC[N+](C)(C)CC=C	inactive	

Experiment: qHTS assay to identify small molecule agonists of the sonic hedgehog signaling (Shh) pathway - cell viability counter screen (AID 1259366); also: nearly all actives have a fitted effect of over 50% in size
Conditions: NIH/3T3 Gli1-Luc viability, CellTiter-Fluor, 24 h; series mostly up to 92.4 µM
In short: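 After a 4hr attachment at 37C, NIH/3T3 cells bearing an integrated Gli1-driven luciferase reporter were dosed with compounds. Treatment lasted 24hr, with the final hour including CellTiter-Fluor for a fluorescence viability measurement.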

Structure (SMILES)	Potency
Cc1cccc(C)c1NC(=O)CN(CC(=O)O)CC(=O)O	inactive
N=C(N)c1ccc(OCCCOc2ccc(C(=N)N)cc2)cc1	inactive
CCS(=O)(=O)c1ccc(OC)c(C(=O)OC)c1	inactive
Fc1ccc(Br)cc1	inactive
